Measured values from PubChem BioAssay (NCI).
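Following 48 hours of exposure in 96-well plates, responses at five concentrations were used to interpolate endpoints linearly. Abbreviation: GI50, concentration required for 50% inhibition of growth. TGI: total growth inhibition.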

Tested on: NCI-H322M lung
Test: growth of human tumour cells (NCI), 48 h

Going from `O=C(Nc1ccccc1)Oc1ccc(C(=S)Nc2ccc(Br)cc2)cc1` to `CCOC(=O)CCC(NC(=O)c1ccc(NC(OC)c2nc3cc(C(F)(F)F)ccc3nc2-c2ccccc2)cc1)C(=O)OCC` (configuration not stated), the TGI falls from 68.9 µM to 28.7 µM (2.4-fold).

`OCC(O)C(O)C(O)C(O)c1nnc2c(-c3ccccc3)nc3ccccc3n12` (configuration not stated) and `OCC(O)C(O)C(O)c1nn(-c2ccc(F)cc2)c2nc3cc(Cl)c(Cl)cc3nc12` (configuration not stated) cannot be ordered by TGI: greater than 100 µM for the first, greater than 100 µM for the second.

`CC1(C)N=C(N)N=C(N)N1c1cccc(CCc2ccccc2)c1` and `COc1ccccc1N/C(SCc1ccccc1)=C(/C(Cl)=C(Cl)Cl)[N+](=O)[O-]` cannot be ordered by TGI: greater than 100 µM for the first, greater than 100 µM for the second.

`COc1cc2cc(C(=O)N3CC(CCl)c4ccc([N+](C)(C)Cc5ccccc5[N+](=O)[O-])cc43)[nH]c2c(OC)c1OC` (configuration not stated) and `COC(=O)c1c(O)ccc2c1c1cc3ccccc3c(O)c1n2CCc1ccc(OC)c(OC)c1` cannot be ordered by TGI: greater than 100 µM for the first, greater than 100 µM for the second.

`Nc1ncc2ncn(C3CCC(CO)O3)c2n1` (configuration not stated) and `COc1ccc(-c2nc(-c3cnccn3)n(C3OC(CO)C(O)C3O)n2)cc1` (configuration not stated) cannot be ordered by TGI: greater than 100 µM for the first, greater than 10 µM for the second.

`O=P(NCCCO)(OCc1ccccc1)N(CCCl)CCCl` (configuration not stated) and `CCCNCCCCC(NC(C)=O)C(=O)NCc1ccccc1` (configuration not stated) cannot be ordered by TGI: greater than 100 µM for the first, greater than 100 µM for the second.

`CN1CC[C@H](c2c(O)cc(O)c3c(=O)cc(-c4ccccc4Cl)oc23)[C@H](O)C1` and `CN1CCc2ccccc2C(C(=O)c2ccc3c(c2)OCO3)C1=O` (configuration not stated) cannot be ordered by TGI: greater than 10 µM for the first, greater than 100 µM for the second.

Compared with `COc1cccc(-c2nc3sccn3c2-c2ccnc(NCCCNS(=O)(=O)c3ccccc3)c2)c1`, `Cc1cc(C)nc(NS(=O)(=O)c2ccc(Nc3c4ccccc4nc4c(C(=O)NCCN(C)C)cccc34)cc2)n1` is lower in TGI: greater than 100 µM for the first, 19.3 µM for the second.

Compared with `CC1(C)OC[C@@H]([C@@]2(COC(c3ccccc3)(c3ccccc3)c3ccccc3)CC=CC(=O)O2)O1`, `CN1CCC(C(O)(c2ccccc2)c2ccc(Br)cc2)CC1` (configuration not stated) is lower in TGI: greater than 100 µM for the first, 93 µM for the second.

`COc1ccccc1-c1c(C#N)c(N)[nH]c(=S)c1C#N` and `COc1ccc(C)cc1NC(=S)C#N` cannot be ordered by TGI: greater than 100 µM for the first, greater than 100 µM for the second.

`O=C(O)CSc1n[nH]c(-c2ccco2)n1` and `CCSC1=N/C(=C\c2ccco2)C(=O)N1` cannot be ordered by TGI: greater than 100 µM for the first, greater than 100 µM for the second.

`C1CSCC2(COC2)CSCCSCC2(COC2)CS1` and `C[C@@H]1CC[C@H]2[C@H](C)C(OC3O[C@@H]4O[C@@]5(C)CC[C@H]6[C@H](C)CC[C@@H]([C@@H]3C)[C@@]46O5)O[C@@H]3O[C@@]4(C)CC[C@@H]1[C@]32O4` (some centres not stated) cannot be ordered by TGI: greater than 100 µM for the first, greater than 100 µM for the second.

`COc1ccc2nc3cc(Cl)ccc3c(NCCCN3CCN(CCCNc4ccc5nnn6c7ccccc7c(=O)c4c56)CC3)c2c1` and `COc1cc([C@@H]2c3cc4c(cc3[C@@H](Nc3ccc(Cl)cc3C(=O)c3ccccc3)[C@H]3COC(=O)[C@H]23)OCO4)cc(OC)c1OC` cannot be ordered by TGI: greater than 25 µM for the first, greater than 100 µM for the second.

`COc1ccc(C2=Nn3c(nnc3-n3nc(C)cc3C)SC2)cc1` and `COc1ccc(/C=C\c2cc(OC)c(OC)c(OC)c2)cc1` cannot be ordered by TGI: greater than 100 µM for the first, greater than 100 µM for the second.

`O=c1[nH][nH]c(=O)c2c1ccc1oc3ccccc3c12` and `O=C(Cc1nc2ccccc2[nH]c1=O)c1c[nH]c2ccccc12` cannot be ordered by TGI: greater than 100 µM for the first, greater than 100 µM for the second.

`COc1ccc2c(c1OC)O/C(=C\c1ncc([N+](=O)[O-])n1C)C2=O` and `COc1cc2c3c(n(CCCNCCCNCCCN)c(=O)c2cc1OC)-c1cc2c(cc1C3=O)OCO2` cannot be ordered by TGI: greater than 100 µM for the first, greater than 100 µM for the second.

First: CN(C)c1ccc(C(O)C2=CC(=O)c3ccccc3C2=O)cc1 (configuration not stated)
Second: CC(Oc1ccccc1Cl)C(=O)NN1C(=O)CC(=O)N(c2ccc(Cl)cc2)C1=S (configuration not stated)
The TGI of the first is lower: 91.2 µM for the first, greater than 100 µM for the second.

First: CC(=O)/C(=C\I)c1ccccc1
Second: O=C(/C=C/c1ccccc1O)c1ccccc1Cl
The TGI of the first is lower: 25.3 µM for the first, greater than 100 µM for the second.

`CCOC(=O)c1c[nH]c(C(=O)C=[N+]=[N-])c1C1CCN(CC)C1=S` (configuration not stated) and `CC(=O)OCC1OC(n2c3c(cc(C#N)c2=S)CCCC3)C(OC(C)=O)C(OC(C)=O)C1OC(C)=O` (configuration not stated) cannot be ordered by TGI: greater than 100 µM for the first, greater than 100 µM for the second.

`O=CNc1ccccc1OCCOc1ccccc1NC=O` and `COC(=O)C(=O)Nc1cc2c3c(c1)Oc1cccc4c1C3(C)c1c(cccc1O2)O4` cannot be ordered by TGI: greater than 100 µM for the first, greater than 100 µM for the second.

First: CCOc1nc2c(N3CCCC3)nc(N3CCNCC3)nc2nc1NCc1ccccc1
Second: Cc1ccc(S(=O)(=O)N2CCNCCN(S(=O)(=O)c3ccc(C)cc3)CCNCC2)cc1
The TGI of the first is 21-fold lower: 2.99 µM for the first, 63.7 µM for the second.

First: N#CCc1cccc(CC#N)c1Br
Second: N#C/C(=C(/O)CCl)c1nc2ccccc2o1
The TGI of the first is higher: greater than 100 µM for the first, 62.2 µM for the second.

`Cc1cc(NS(=O)(=O)c2ccc(N=[N+]([O-])c3ccc(S(=O)(=O)Nc4cc(C)on4)cc3)cc2)no1` and `CC1(C)C2CCC13C(=O)C1OC3(C2)C2C(=O)c3c(ccc4c3ccc3ccccc34)C(=O)C12` (configuration not stated) cannot be ordered by TGI: greater than 100 µM for the first, greater than 100 µM for the second.

First: C[C@H]1CC[P+](C)(c2ccccc2)C1 (some centres not stated)
Second: C[C@@H]1CC[C@@H]2[C@@H](C1)O[C@@H]([C@@H](C)OCc1ccccc1)SC2(C)C
The TGI of the first is higher: greater than 100 µM for the first, 74 µM for the second.

`C=C1C(=O)O[C@H]2C1C[C@H](O)[C@@]1(C)OC1CC[C@@]1(C)O[C@H]21` (some centres not stated) and `CC(C)[C@H]1NC(=O)[C@H]2N=C(S[C@H]2C)[C@@H]2CCCN2C(=O)[C@H](Cc2ccccc2)NC(=O)[C@@H]2CSC(=N2)[C@@H](Cc2ccccc2)NC(=O)[C@@H]2CSC1=N2` cannot be ordered by TGI: greater than 100 µM for the first, greater than 50 µM for the second.

First: CN=c1sc2nc(C#N)c(C#N)nc2n1C
Second: Nc1nc(SCC(=O)c2ccc(Br)cc2)c2[nH]cnc2n1
The TGI of the first is lower: 32.1 µM for the first, greater than 100 µM for the second.

`OCCN(CO)CO` was tested, and the TGI was greater than 100 µM.

First: OCC(O)C(O)C(O)C(O)c1nnc2c(-c3ccccc3)nc3ccccc3n12 (configuration not stated)
Second: CC1(C)N=C(N)N=C(N)N1c1cccc(CCc2ccccc2)c1
The GI50 of the first is 48-fold higher: 32.3 µM for the first, 0.673 µM for the second.

Compared with `CN1CC[C@H](c2c(O)cc(O)c3c(=O)cc(-c4ccccc4Cl)oc23)[C@H](O)C1`, `CN(C)c1ccc(C(O)C2=CC(=O)c3ccccc3C2=O)cc1` (configuration not stated) is 750-fold higher in GI50: 0.0318 µM for the first, 23.8 µM for the second.

Going from `COc1cccc(-c2nc3sccn3c2-c2ccnc(NCCCNS(=O)(=O)c3ccccc3)c2)c1` to `CC1(C)C2CCC13C(=O)C1OC3(C2)C2C(=O)c3c(ccc4c3ccc3ccccc34)C(=O)C12` (configuration not stated), the GI50 rises from 4.43 µM to greater than 84 µM.

Going from `COc1ccc(C2=Nn3c(nnc3-n3nc(C)cc3C)SC2)cc1` to `COc1ccc2c(c1OC)O/C(=C\c1ncc([N+](=O)[O-])n1C)C2=O`, the GI50 rises from 0.59 µM to greater than 36.2 µM.

For `COc1cc2c3c(n(CCCNCCCNCCCN)c(=O)c2cc1OC)-c1cc2c(cc1C3=O)OCO2`, the GI50 was 83.4 µM.
